Measured values reported in PubChem BioAssay AID1671188 (National Center for Advancing Translational Sciences (NCATS), 2021).
“And” between values parts separate entries of the source, which are not always exact repeats. Equal entries are not always repeated. The whole screen tested about 100,000 compounds, of which about 250 (0.25%) were called active. Inconclusive means that the source gave no clear call. Such entries were picked first, then a sample of the others. The call rests on the fitted dose curve; in most records, active means well fitted inhibition curve with a large enough effect; inconclusive means small, poorly fitted or top-dose-only effect; inactive means flat fitted curve, though single readings scatter. Potencies of inconclusive entries are doubtful fits and often do not repeat.

Each compound was assayed against Alanine aminotransferase 2 (Homo sapiens) (UniProt Q8TD30) (assay: Primary qHTS assay for inhibitors of Glutamate pyruvate transaminase 2 (GPT2)). Conditions: Recombinant GPT2, coupled pyruvate oxidase/HRP Amplex Red fluorescence; series mostly up to 57.7 µM.
Outline: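 Fluorescence read-out: pyruvate from GPT2 turnover coupled to pyruvate oxidase, HRP and Amplex Red (0.2mM ThPP, 0.2U/mL PO and HRP, 50uM Amplex final). Substrates 250uM a-KG, 2mM L-alanine; enzyme 10ng/uL; 30 min RT.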
Further: nearly all actives have a fitted effect of over 60% in size.
Potency means the concentration at half of the fitted maximal effect; tags describe the fitted curve by direction and shape.

Chain of UniProt Q8TD30 (Q8TD30 whole entry, looked up): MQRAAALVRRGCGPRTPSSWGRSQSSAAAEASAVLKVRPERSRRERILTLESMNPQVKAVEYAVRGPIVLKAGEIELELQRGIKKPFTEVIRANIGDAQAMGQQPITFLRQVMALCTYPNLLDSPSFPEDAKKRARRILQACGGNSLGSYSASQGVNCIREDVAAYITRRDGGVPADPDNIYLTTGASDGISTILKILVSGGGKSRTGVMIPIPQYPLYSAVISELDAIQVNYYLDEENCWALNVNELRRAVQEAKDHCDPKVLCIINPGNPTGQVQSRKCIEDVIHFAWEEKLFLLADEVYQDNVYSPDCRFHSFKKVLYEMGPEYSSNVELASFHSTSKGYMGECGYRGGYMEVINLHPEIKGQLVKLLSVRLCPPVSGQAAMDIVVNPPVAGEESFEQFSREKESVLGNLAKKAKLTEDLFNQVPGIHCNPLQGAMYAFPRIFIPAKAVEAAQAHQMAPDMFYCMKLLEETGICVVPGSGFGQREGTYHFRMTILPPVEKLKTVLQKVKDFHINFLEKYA

Structure (SMILES)	Potency
Cc1ncoc1C(=O)N1CCCN(C(=O)C2CC2)C(c2ccccc2)CC(=O)NCC1 (stereo not drawn)	inconclusive: 4.47 µM [inhibitor, single point]
Cc1cc(C(=O)N2CC(F)(F)C[C@H]2c2nc(C)no2)on1	inactive
COc1ccc(-c2cc(N3CCCC(NC(=O)c4cc(Cl)ccc4F)C3)n[nH]2)cc1 (stereo not drawn)	inconclusive: 22.4 µM [inhibitor, partial curve, poor fit]
O=C(C1CCN(C(=O)N2CC3CC(C2)[C@H]2CCCC(=O)N2C3)CC1)N1CCOCC1 (stereo partly drawn)	inactive
Cc1nc(N2CCCCC2)n(CC(=O)Nc2cccc(Cl)c2)c(=O)c1C	inactive
Cc1ccc(OCC(=O)c2ccc3c(c2)N(CCCC(=O)N2CCCC2)C(=O)CO3)cc1C	inconclusive: 39.8 µM [inhibitor, single point]
O=C(c1ccccc1)N1CCCC(N2CCN(c3cccc(C(F)(F)F)c3)CC2)C1 (stereo not drawn)	inconclusive: 39.8 µM [inhibitor, single point]
CCCCNc1ccc2nncn2n1	inconclusive: 39.8 µM [inhibitor, single point]
Cn1c2c(c3ccccc31)CN(C(=O)Nc1ccccc1F)CC2	inactive
COc1ccc(F)c(CN2CCCC(O)(CN3CCC(CO)CC3)C2=O)c1 (stereo not drawn)	inconclusive: 1.26 µM [inhibitor, full curve, poor fit]
Oc1ccc(C2CNCCc3c2cc(O)c(O)c3Cl)cc1 (stereo not drawn)	inconclusive: 12.2 µM [inhibitor, partial curve, poor fit] and inconclusive: 3.55 µM [inhibitor, single point] and inconclusive: 7.08 µM [inhibitor, full curve, poor fit]
COc1ccc(NC(=O)N2CCc3nc4cc(-c5ccccc5)[nH]n4c(=O)c3C2)c(C)c1	inconclusive: 28.2 µM [inhibitor, single point]
CN1CCN(S(=O)(=O)c2cc(Br)cc(C(=O)O)c2)CC1	inconclusive: 6.31 µM [inhibitor, single point]
CC1=C[C@@H](CNCc2ccccc2)[C@H](C(C)C)C[C@H]1Cc1nc2c(C)cccc2[nH]1	inactive
C=C1C(=O)OC2CC(COC(=O)C(C)C)=C(C(C)CCCOC(C)=O)[C@@H](OC(C)=O)C12 (stereo partly drawn)	inconclusive: 3.55 µM [inhibitor, single point]
C=C1C(=O)OC2C(OC(=O)C=C(C)C)C(C)=C3C(=O)C=C(C)C3C(O)C12 (stereo not drawn)	inconclusive: 2.82 µM [inhibitor, single point]
Cc1ccc(C(=O)NC2CCN(c3cc(-c4cccs4)[nH]n3)C2)cc1F (stereo not drawn)	inconclusive: 3.55 µM [inhibitor, full curve, poor fit]
COCCOC(=O)C1=C(C)N=C2SC=C(CC(=O)NCc3ccco3)N2C1c1ccccc1OC (stereo not drawn)	inactive
O=C(NCc1ccc(Cl)cc1)c1noc(-c2ccc(F)cc2)n1	inactive
O=C(N[C@H]1CO[C@H]2[C@@H]1OC[C@@H]2n1nnnc1-c1ccc2c(c1)OCO2)c1ccccc1	inactive
O=C(NCc1ccc(Cl)cc1)c1ccnc2[nH]ccc12	inconclusive: 12.6 µM [inhibitor, partial curve]

Structure (SMILES)	Potency
COc1cccc(C(=O)N2CCN(C(=O)c3cccc(-c4ccccn4)c3)CC2)c1	inactive
O=Cc1ccccc1-c1ccc(OC(F)(F)F)cc1	inconclusive: 0.891 µM [inhibitor, full curve, poor fit]
COc1ccccc1CN1Cc2cc(NC(=O)C3CCCC3)ccc2OC(C)C1=O (stereo not drawn)	inconclusive: 3.55 µM [inhibitor, full curve, poor fit]
COc1ccc(CCC(=O)N2CCCCCCNC(=O)[C@@H]3CCC[C@@H]32)cc1	inconclusive: 35.5 µM [inhibitor, single point]
COc1ccc(CC(=O)NC2CCN(c3cc(-c4ccc(F)cc4)[nH]n3)C2)cc1 (stereo not drawn)	inconclusive: 11.2 µM [inhibitor, partial curve]
Cc1ccc(N(CC(=O)N[C@H]2C[C@@H]3OCC[C@H]23)S(C)(=O)=O)cc1	inconclusive: 39.8 µM [inhibitor, single point]
Cn1c(=O)oc2cc(NC(=O)CCc3cc4n(n3)CCCNC4)ccc21	inconclusive: 3.16 µM [inhibitor, single point]
NC(=O)[C@@H](Cc1ccccc1)NC(=O)[C@@]1(O)C[C@@H](O)[C@H](O)[C@@H](NS(=O)(=O)c2cccc(C(F)(F)F)c2)C1	inconclusive: 10 µM [inhibitor, single point]
COC(=O)CC1CCN(C(=O)C[C@H]2NC(=O)c3ccccc3NC2=O)CC1	inconclusive: 39.8 µM [inhibitor, single point]
CCCCCC(=O)N1CCC(O)(c2csc(CN3CCN(c4ccccn4)CC3)n2)CC1	inactive
COc1ccc(CCc2nc3nccc(-c4cccc(OC)c4)n3n2)cc1	inconclusive: 39.8 µM [inhibitor, single point]
O=C(c1ccccc1)N1CCCC2(CC(c3cccc(C(F)(F)F)c3)=NO2)C1 (stereo not drawn)	inconclusive: 28.2 µM [inhibitor, single point]
O=C(Nc1ccc(F)cc1)C1CN(c2ccnc3ccnn23)C1	inactive
Cc1cccc(C(=O)N2C[C@@H](CO)[C@H](c3ccccn3)C2)n1	inconclusive: 39.8 µM [inhibitor, single point]
CCCc1ncc(C[n+]2ccccc2C)c(N)n1	inconclusive: 14.1 µM [inhibitor, partial curve, poor fit]
COc1cccc(-c2cccc(C(=O)N3CCCC3C(=O)NCCCc3ccccc3)c2)c1 (stereo not drawn)	inconclusive: 39.8 µM [inhibitor, single point]
O=C1Nc2ccc(-c3ccc4c(c3)OCO4)cc2C(=O)N2CCN(C(=O)NC3CCCCC3)C[C@H]12	inactive
O=C(NC1CCN(C(=O)c2ccc(-c3cncnc3)cc2)CC1)c1ccccn1	inactive
COc1ccc(-c2cc(N3CCC(NC(=O)COc4ccccc4C)CC3)n[nH]2)cc1	inconclusive: 15.8 µM [inhibitor, partial curve, poor fit]
Cc1nn2c(c1-c1ccccc1Oc1ccccc1)N(C(=O)Cc1cccc(F)c1)CCC2	inconclusive: 7.94 µM [inhibitor, full curve, poor fit]
Cc1cccc(-c2noc([C@@H]3Cc4nc[nH]c4CN3C(=O)Nc3ccccc3)n2)c1	inconclusive: 31.6 µM [inhibitor, single point]

Structure (SMILES)	Potency
O=C(c1ccccc1)N1CCC(C(=O)N2CCCC2c2nc3ccncc3[nH]2)CC1 (stereo not drawn)	inconclusive: 35.5 µM [inhibitor, single point]
COCc1nc2nc(-c3ccccc3)c(-c3ccc(OC)nc3)cc2n1C	inactive
COc1ccc(C(=O)N2CCN(S(=O)(=O)c3ccc(F)cc3)C[C@@H]2C(=O)N[C@H]2CCCNC2=O)cc1	inconclusive: 7.08 µM [inhibitor, single point]
CC(C)NC(=O)N[C@H]1CCN(C(=O)CC(C)(C)C)[C@@H]1C(=O)N[C@H](Cc1c[nH]c2ccccc12)C(N)=O	inconclusive: 6.31 µM [inhibitor, single point]
COc1ccc(-c2nc(C(C)C)nc3c2CCN(C(=O)C(C)(C)C)CC3)cc1	inconclusive: 11.2 µM [inhibitor, partial curve]
CN(C)C[C@@H]1CN(c2ncccn2)C[C@H]1NC(=O)Cc1ccccc1F	inactive
Cn1c(CCNC(=O)C23CCCC=C2N(Cc2ccccc2)C(=O)CC3)nc2ccccc21 (stereo not drawn)	inconclusive: 0.708 µM [inhibitor, full curve, poor fit]
N#C/C(=C\c1ccc(O)c(O)c1)C(=O)Nc1ccccc1	inconclusive: 39.8 µM [inhibitor, single point]
COCCn1c(C)cnc1CC1CCCN(Cc2cccc(F)c2)C1 (stereo not drawn)	inconclusive: 35.5 µM [inhibitor, single point]
O=C1Nc2ccc(-c3ccsc3)cc2C(=O)N2C[C@@H](NS(=O)(=O)c3ccc(F)cc3)C[C@@H]12	inactive
CN(C)c1ccc(NC(=O)Cn2cccc2-c2nc(-c3ccccc3)no2)cc1	inconclusive: 2.51 µM [inhibitor, full curve, poor fit]
CN(C1CCc2nn(CC3CC3)c(=O)n2CC1)S(=O)(=O)c1ccc2c(c1)OCCO2 (stereo not drawn)	inactive
O=C(NC1CCCC1)N1CCc2nc(C3CC3)nc(-c3ccc(Cl)cc3)c2C1	inactive
CC1(C)CCC(NC(=O)[C@@H](N)CCC(=O)O)CC1	inconclusive: 35.5 µM [inhibitor, single point]
Fc1ccc(C(c2ccc(F)cc2)N2CCN(CC=Cc3ccccc3)CC2)cc1	active: 4.32 µM
COCC1CCN(C(=O)C2CCCN(S(=O)(=O)c3cn(C)cn3)CCC(=O)NCC2)CC1 (stereo not drawn)	inactive
O=C(C1CC=CC1)N1CCN(C(=O)N2CC3CC(C2)[C@H]2CCCC(=O)N2C3)CC1 (stereo partly drawn)	inconclusive: 6.31 µM [inhibitor, single point]
Cc1ccc(-c2ccccc2CN2CCC(C(=O)N3CCOCC3)CC2)cc1Cl	inactive
O=C(NC1CCCN(c2cc(-c3ccccc3)[nH]n2)C1)c1cccc(F)c1 (stereo not drawn)	inconclusive: 39.8 µM [inhibitor, partial curve, poor fit]
O=C(O)C1CCNCC1	inconclusive: 39.8 µM [inhibitor, single point]
CCCCCN(CCC(=O)NCc1ccc2c(c1)OCO2)C(=O)c1cc(C)oc1C	inconclusive: 22.4 µM [inhibitor, partial curve, poor fit]
